In PMC2808332:
No constants are given. Whether binding was seen depends on the method and setting. Some results given as binding are weak or reduced against the parent protein; the word gives no strength.

How the values were obtained:
Assay in all cases: peptide or protein array; Invitrogen Protoarray v4.0, about 8,400 human proteins spotted on nitrocellulose-coated glass slides; 10 µg biotinylated tag-free NEMO in 120 µl probing buffer (PBS, 0.5 mM DTT, 5 mM MgCl2, 5% glycerol, 0.05% Triton X-100), 4°C, 1.5 h; bound NEMO detected with labelled streptavidin; hits Z-score > 3, hits of the biotin-GST control array subtracted; both purified
[1] = biological target: T1, N-terminal EF-hand calcium binding protein 3 (human) (UniProt Q96P71)
T1 sequence: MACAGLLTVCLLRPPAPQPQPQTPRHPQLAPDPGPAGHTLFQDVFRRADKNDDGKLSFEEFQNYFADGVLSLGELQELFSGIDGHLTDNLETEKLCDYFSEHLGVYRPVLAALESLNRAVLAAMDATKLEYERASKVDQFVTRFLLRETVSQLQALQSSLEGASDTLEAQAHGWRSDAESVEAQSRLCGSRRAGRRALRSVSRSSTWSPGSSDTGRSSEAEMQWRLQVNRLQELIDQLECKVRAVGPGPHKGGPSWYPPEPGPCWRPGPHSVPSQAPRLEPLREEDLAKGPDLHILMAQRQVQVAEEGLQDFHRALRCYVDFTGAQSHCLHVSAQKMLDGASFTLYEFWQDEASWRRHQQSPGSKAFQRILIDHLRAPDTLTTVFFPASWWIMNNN

[2] = biological target: T2, Sodium channel and clathrin linker 1 (human) (UniProt Q96NL6)
T2 sequence: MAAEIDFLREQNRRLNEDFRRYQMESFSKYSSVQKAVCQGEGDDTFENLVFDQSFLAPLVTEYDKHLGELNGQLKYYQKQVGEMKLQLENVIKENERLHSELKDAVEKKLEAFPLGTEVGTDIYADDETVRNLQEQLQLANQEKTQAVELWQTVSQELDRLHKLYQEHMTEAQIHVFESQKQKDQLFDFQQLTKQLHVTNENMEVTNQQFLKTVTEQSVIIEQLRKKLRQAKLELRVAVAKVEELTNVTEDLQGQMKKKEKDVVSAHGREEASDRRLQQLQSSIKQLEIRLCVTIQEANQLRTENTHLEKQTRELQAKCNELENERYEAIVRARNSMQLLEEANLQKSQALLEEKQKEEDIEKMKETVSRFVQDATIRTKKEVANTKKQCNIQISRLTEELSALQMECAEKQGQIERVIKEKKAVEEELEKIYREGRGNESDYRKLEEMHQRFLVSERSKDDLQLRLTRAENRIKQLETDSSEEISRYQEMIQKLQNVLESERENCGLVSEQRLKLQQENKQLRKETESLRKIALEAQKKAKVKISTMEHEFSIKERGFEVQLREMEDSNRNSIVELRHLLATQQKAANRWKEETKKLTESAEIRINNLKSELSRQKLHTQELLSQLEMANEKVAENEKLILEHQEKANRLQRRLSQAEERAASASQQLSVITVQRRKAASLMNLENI

[3] = biological target: T3, Myeloid/lymphoid or mixed-lineage leukemia; translocated to, 6 (human) (UniProt P55198)
T3 sequence: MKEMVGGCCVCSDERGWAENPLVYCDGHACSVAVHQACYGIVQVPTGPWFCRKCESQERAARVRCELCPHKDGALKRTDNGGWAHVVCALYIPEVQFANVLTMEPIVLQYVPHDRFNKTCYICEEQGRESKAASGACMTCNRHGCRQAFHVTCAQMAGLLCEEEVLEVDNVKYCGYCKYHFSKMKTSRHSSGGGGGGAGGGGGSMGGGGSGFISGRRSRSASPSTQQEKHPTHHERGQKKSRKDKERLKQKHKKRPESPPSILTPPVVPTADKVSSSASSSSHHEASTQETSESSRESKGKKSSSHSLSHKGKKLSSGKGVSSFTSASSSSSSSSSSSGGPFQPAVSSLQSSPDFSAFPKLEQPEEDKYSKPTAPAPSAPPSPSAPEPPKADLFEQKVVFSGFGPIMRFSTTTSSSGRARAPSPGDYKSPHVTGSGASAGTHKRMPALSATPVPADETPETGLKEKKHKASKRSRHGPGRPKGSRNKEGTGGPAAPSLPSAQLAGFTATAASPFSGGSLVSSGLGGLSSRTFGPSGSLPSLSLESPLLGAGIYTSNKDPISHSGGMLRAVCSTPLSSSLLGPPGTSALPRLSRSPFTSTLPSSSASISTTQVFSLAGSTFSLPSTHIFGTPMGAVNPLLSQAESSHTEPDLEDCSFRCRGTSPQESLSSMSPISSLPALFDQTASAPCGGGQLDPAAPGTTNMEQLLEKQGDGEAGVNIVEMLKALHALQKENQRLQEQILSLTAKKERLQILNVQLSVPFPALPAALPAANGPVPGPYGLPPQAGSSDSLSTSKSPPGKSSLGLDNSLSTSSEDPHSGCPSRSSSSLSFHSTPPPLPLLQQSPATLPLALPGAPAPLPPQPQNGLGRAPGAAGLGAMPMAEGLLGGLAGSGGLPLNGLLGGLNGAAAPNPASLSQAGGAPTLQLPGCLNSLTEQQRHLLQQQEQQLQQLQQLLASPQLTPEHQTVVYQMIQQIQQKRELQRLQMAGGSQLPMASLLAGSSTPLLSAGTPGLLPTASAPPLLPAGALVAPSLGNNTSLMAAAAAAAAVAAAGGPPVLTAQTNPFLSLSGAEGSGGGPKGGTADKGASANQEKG

- binding [1]: binds
- binding [2]: binds
- binding [3]: binds
Substance: NEMO (NF-κB essential modulator), tag-free, biotinylated (from UniProt Q9Y6K9 1-419)
